Data on three molecules can be found in patent US20250109201A1 (AGENUS, published 2025).

Assay [1] concerns the target T1, ECD-His tagged human ILT2 haplotype PE01 (human, UniProt Q8NHL6 24-458).
T1 construct: also called Human ILT2 PE01 ECD; LILRB1/ILT2 PE01; not shown: His tag
Description: SPR, captured antibody, ILT2 ECD-His analyte. The protocol: (§1) The binding affinity of anti-ILT2 antibody variants with IgG1 N297A constant regions to ECD-His tagged human ILT2 haplotypes PE01, PE02, PE03 (see Table 1) was assessed by surface plasmon resonance (SPR).
(§2) Briefly, SPR experiments were performed using a Biacore T200 instrument, and the association rate (Kₐ), dissociation rate (Kd), and dissociation constant (KD) were calculated from each experiment using a 1:1 binding model with Biacore™ T200 Evaluation Software. Capture of antibodies from the Human Fab Capture kit (28958325, GE Healthcare) to the Series S CM5 sensor chip (29149603, GE Healthcare) was performed using the immobilization wizard for amine coupling from the Biacore™ control panel and following the manufacturer's recommendations included with the kit.
(§3) Approximately 3 μg/mL of tested anti-ILT2 antibodies and controls diluted in a running buffer (10 mM HEPES, 150 mM NaCl, 3 mM EDTA, and 0.05% surfactant P20) were captured in individual flow cells of previously prepared anti Human Fab CM5 chip, keeping a single flow cell as a reference. Antibodies were captured using a 30 sec injection at a flow rate of 10 μL/min to reach about 150 resonance units (Rus). Human ILT2 ECD PE01 (diluted in the running buffer at the concentration of 30, 10, 3.3, 1.11, 0.37, 0.12 nM), and human ILT2 ECD PE02 and PE03 (diluted in the running buffer at the concentration of 33.3, 11.1, 3.7, 1.2, 0.41, 0.14 nM), were flowed over the chip surface at a flow rate of 30 μL/min with a 3-min association phase and a 10-min dissociation phase. The sensor chip was regenerated between cycles with a double 30-sec injection of 10 mM glycine, pH 2.1 at 30 μL/min followed by stabilization period of 60s. Sensorgrams were evaluated and fit to a simple Langmuir 1:1 interaction model using the global data analysis option of BIAevaluation 3.1 software. Data quality was verified by visually inspecting deviations and curve fitting, and by evaluating the parameters of Rₘₐₓ, Chi2, and Tc.
Background: SPR reads the build-up and loss of mass on a sensor chip optically.

In assay [2] the target is T2, ECD-His tagged human ILT2 haplotype PE02 (human, UniProt Q8NHL6 24-458).
T2 construct: also called Human ILT2 PE02 ECD; not shown: His tag
The assay can be described thus: SPR, captured antibody, ILT2 ECD-His analyte. As to the method: as §1, §2, §3

In assay [3] the target is T3, ECD-His tagged human ILT2 haplotype PE03 (human, UniProt Q8NHL6 24-458).
T3 construct: also called Human ILT2 PE03 ECD (Sino biological, 16014-H08H); not shown: His tag
Description: SPR, captured antibody, ILT2 ECD-His analyte. As to the method: as §1, §2, §3

The target in assay [4] is T4, human ILT2 extracellular and transmembrane domains expressed on CHO cells (human, UniProt Q8NHL6 24-482, limits assumed).
T4 construct: domain: extracellular and transmembrane domains; which one is told under assay; also called CHO cells expressing human ILT2 (relatively low or relatively high level); CHO-ILT2 cells
Description: flow cytometry, CHO cells with low human ILT2. As to the method:
For the antibody binding assay, the cells were seeded in a 96-well U-bottom tissue culture plate at a density of 3×10⁵ cells per well in 25 μL of PBS supplemented with 0.5% BSA, 1 mM EDTA and 0.05% sodium azide (FACS Buffer). The cells were incubated for 30 minutes at 4° C. with 25 μL of a series dilution of anti-ILT2 antibodies or isotype control, at final concentrations ranging from 10 μg/mL to 0.2 ng/mL in FACS Buffer.
After a 30-minute incubation in the dark at 4° C., the cells were washed twice with cold FACS Buffer, and the cells were analyzed by flow cytometry (BD LSR Fortessa Flow Cytometer). CHO cells were identified using a plot of forward scatter-area (FSC-A) versus side scatter area (SSC-A) and another plot of FSC-A versus forward scatter-height (FSC-H) for selection of single cells. Samples were analyzed by sequentially gating on the single cell population and plotting histograms representing the fluorescence in the PE channel. For each sample, mean fluorescence intensity (MFI) was calculated, and the data were plotted by GraphPad Prism software.
On the technique in general: A flow cytometer gives signals particle by particle.

The target of assay [5] is T5, full-length ILT2 expressed on Jurkat cells (human, UniProt Q8NHL6 24-650).
T5 construct: whole, on cells; The Jurkat line also carries FcgRIIIa and an NFAT-luciferase reporter (Promega/G7102); also called Jurkat cells expressing human ILT2; ILT2-expressing Jurkat reporter cells
Description: flow cytometry, Jurkat cells expressing human ILT2.

Assay [6] deals with T1, ECD-His tagged human ILT2 haplotype PE01. The assay can be described thus: SPR, ILT2 PE01 ECD-His, average of two measurements. As to the method: as §2
Variants of irrelevant antibody VRC01 (with IgG1, IgG1 N297A, IgG4 S228P, IgG2, or IgG2 C127S constant regions) were used as negative isotype controls. The binding kinetics are shown in Table 5 as an average from two independent measurements.

The target in assay [7] is T4, human ILT2 extracellular and …. The assay can be described thus: flow cytometry, blocking of HLA-G-Fc-PE on CHO cells with high human ILT2. As to the method:
Samples were analyzed by sequentially gating on the single cell population and plotting histograms representing the fluorescence in the PE channel.

T1 sequence (Q8NHL6 24-458): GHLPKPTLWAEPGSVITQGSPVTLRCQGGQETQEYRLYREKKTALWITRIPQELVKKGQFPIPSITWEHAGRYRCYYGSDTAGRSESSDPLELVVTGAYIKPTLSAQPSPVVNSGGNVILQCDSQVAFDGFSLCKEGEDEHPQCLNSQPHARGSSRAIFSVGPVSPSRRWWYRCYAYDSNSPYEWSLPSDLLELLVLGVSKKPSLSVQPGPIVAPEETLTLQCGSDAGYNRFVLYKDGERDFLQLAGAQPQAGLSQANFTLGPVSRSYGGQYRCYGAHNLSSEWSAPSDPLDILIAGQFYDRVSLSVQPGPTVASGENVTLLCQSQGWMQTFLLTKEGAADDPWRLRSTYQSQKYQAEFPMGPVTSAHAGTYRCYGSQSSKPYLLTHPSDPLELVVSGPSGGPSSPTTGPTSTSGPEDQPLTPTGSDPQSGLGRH

B1: BA211 (antibody, human IgG1, kappa)
heavy: QVQLVQSGAEVKKPGASVKVSCKASGYTFNRYYMHWVRQAPGQGLEWMGWINPYTGGTNYAQKFQGRVTMTRDTSISTAYMELSRLRSDDTAVYYCASKQPSSDYWGQGTLVTVSSASTKGPSVFPLAPSSKSTSGGTAALGCLVKDYFPEPVTVSWNSGALTSGVHTFPAVLQSSGLYSLSSVVTVPSSSLGTQTYICNVNHKPSNTKVDKRV[letters of human IgG1 Fc with changes omitted]
light: not shown
Turning to B1, the Kd (as a rule, the equilibrium constant for the complex coming apart) stood at 0.099 nM in assay [1], 0.671 nM in assay [2], 0.929 nM in assay [3] and 0.15 nM in assay [6]. Besides, the koff (usually a measure of how fast the partners let go of each other) came to 3.4e-05 s⁻¹ in assay [1], 0.00017 s⁻¹ in assay [2], 0.00025 s⁻¹ in assay [3] and 5.6e-05 s⁻¹ in assay [6]. Also, the kon (usually a measure of how fast the partners come together) in assay [1] came to 340000 M⁻¹ s⁻¹; in assay [2], 260000 M⁻¹ s⁻¹; in assay [3], 270000 M⁻¹ s⁻¹; in assay [6] it was 370000 M⁻¹ s⁻¹. Also, the AUC in assay [4] amounted to 13300; in assay [5] it was 226000. The EC50 (in general, the concentration that produces a half-maximal response) in assay [4] was determined as 0.123 µg/mL; in assay [5], 0.059 µg/mL. In assay [7], the IC50 (usually the midpoint of a concentration-inhibition curve) was 0.159 µg/mL.

B2: BA248 (antibody, human IgG4 S228P, kappa)
heavy: QVQLVQSGAEVKKPGASVKVSCKASGYTFNRYYMHWVRQAPGQGLEWMGWINPYTGGTNYAQKFQGRVTMTRDTSISTAYMELSRLRSDDTAVYYCASKQPSSDYWGQGTLVTVSSASTKGPSVFPLAPCSRSTSESTAALGCLVKDYFPEPVTVSWNSGALTSGVHTFPAVLQSSGLYSLSSVVTVPSSSLGTKTYTCNVDHKPSNTKVDKRV[letters of human IgG4 Fc with S228P (EU numbers) omitted]
light: not shown
In assay [6], B2 yielded a Kd of 0.22 nM, a koff of 8.3e-05 s⁻¹ and a kon of 410000 M⁻¹ s⁻¹.

B3: BA210 (antibody, human IgG1, kappa)
heavy: QVQLVQSGAEVKKPGASVKVSCKASGYTFNRYYMHWVRQAPGQGLEWMGWINPYTGGTNYAQKFQGRVTMTRDTSISTAYMELSRLRSDDTAVYYCASKQPSSDYWGQGTLVTVSSASTKGPSVFPLAPSSKSTSGGTAALGCLVKDYFPEPVTVSWNSGALTSGVHTFPAVLQSSGLYSLSSVVTVPSSSLGTQTYICNVNHKPSNTKVDKRV[letters of human IgG1 Fc omitted]
light: not shown
In assay [6], B3 yielded a Kd of 0.15 nM, a koff of 8.9e-05 s⁻¹ and a kon of 710000 M⁻¹ s⁻¹.
